Each structure is given as a SMILES string. The campaign covered roughly 45,000 compounds. About 200 (0.44%) were called active. Inconclusive results (about 7%) are left out. Calls come from the whole dose curve; as a rule, active = well fitted activation curve with a large enough effect; inconclusive = small, poorly fitted or top-dose-only effect; inactive = no such curve, though single readings can be large or run the other way. This is one part of the list.

A short description of the test: qHTS of TDP-43 Inhibitors: NCGC Sytravon Library Screen. Note: 0% is about no effect; nearly all actives have a fitted effect of over 55% in size. As to conditions: yeast TDP-43 toxicity rescue, BacTiter-Glo growth, 24 h; series mostly up to 46.1 µM; growth rescue (activation): at the top concentration. In short, it runs like this:
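TDP-43-expressing yeast, pregrown in raffinose, seeded at OD600 0.02 in galactose medium with compound for 24 hr at 30 deg C. Growth read by BacTiter-Glo luminescence, so rescue of toxicity appears as activation.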
(In general: In qHTS, concentration-response curves come from the screen itself.)
Consider `CC(C)COC(=O)n1c(=O)oc2ccc(S(=O)(=O)N3CCCCC3)cc21`, for which the “growth rescue (activation)” value was inactive: 31.4%.
For the molecule `Cc1ccc(S(=O)(=O)N2CCCC2C(=O)OCc2nc3ccccc3s2)cc1` (stereo not given), the “growth rescue (activation)” value is inactive: -21.5%.
Regarding `CC1CCCN(C2=C(NS(=O)(=O)c3ccc(Br)cc3)C(=O)c3ccccc3C2=O)C1` (stereo not given), the “growth rescue (activation)” value was inactive: -16.4%.
Regarding `NS(=O)(=O)c1cccc(NC(=O)CSc2nnc(-c3ccccc3F)n2C2CC2)c1`, the “growth rescue (activation)” value is inactive: 3.98%.
The figure for `O=C(CSc1nnc(CNC(=O)c2c(F)cccc2Cl)o1)Nc1ccccc1` is inactive: -11.6%; for `O=C1CN(c2nnnn2-c2ccccc2)CCN1` it is inactive: -46.5%; for `O=[N+]([O-])c1cnc2nc(-c3ccncc3)nn2c1O` it is inactive: 10%.
The value for `CCOC(=O)c1c(CN(C)C)n(C)c2ccc(OC(C)=O)cc12` was inactive: -1.47%.
Regarding `CCN(CC)C1CC(=O)N(c2cccc(Cl)c2)C1=O` (stereo not given), the “growth rescue (activation)” value was inactive: -94%.
With `CCCOc1ccc(S(=O)(=O)N2C(=O)CC(=O)N(Cc3ccc(OCC)cc3)C2=O)cc1`, the “growth rescue (activation)” value is inactive: 22.3%.
The figure for `Cc1cnc(C(=O)Nc2ccc(N3CCCCC3)cc2)cn1` is inactive: 1.97%.
The value for `COc1ccccc1S(=O)(=O)Nc1cc(S(=O)(=O)N2CCCCC2)ccc1N1CCOCC1` was inactive: 10.1%; that for `CCOc1ccccc1-n1nnnc1SCC(=O)NC(=O)Nc1ccc2c(c1)OCCO2` was inactive: -6.03%.
As to `S=C(c1ccccc1)N1CCN(C(=S)c2ccccc2)CC1`, the “growth rescue (activation)” value is inactive: 9.06%.
The figure for `N#C/C(=C\c1c[nH]c2ccccc12)C(=O)NC1CC1` is inactive: -8.03%; for `CC(C)c1ccc(NC(=O)C2=CC=CN3CCS(=O)(=O)N=C23)cc1` it is inactive: 19.8%; for `CCOC(=O)CC1C(=O)NCCN1C(=S)Nc1ccccc1` (stereo not given) it is inactive: -1.61%.
The value for `CSc1ccc(C2N=C(c3ccccc3)NO2)cc1` (stereo not given) was inactive: 4.71%; that for `O=C(O)c1ccc2ncsc2c1` was inactive: 22.7%; that for `COc1cc(C(=O)N[C@H](C(=O)NC2CCCc3ccccc32)C(C)C)cc(OC)c1OC` (stereo not given in full) was inactive: 13.4%.
The value for `O=C(CCNS(=O)(=O)c1ccc(Cl)cc1)OCC(=O)c1ccc[nH]1` was inactive: -5.36%; that for `O=C(Nc1ccc(F)c(Cl)c1)c1csc(COCCO)n1` was inactive: 0.984%; that for `CCOc1ccc(-c2nnc(SCC(=O)Nc3cccc(Cl)c3C)o2)cc1` was inactive: 5.82%.
As to `CC(Sc1nc(N)cc(=O)[nH]1)C(=O)Nc1cccc(Cl)c1` (stereo not given), the “growth rescue (activation)” value was inactive: 19.4%.
The value for `O=C(CSc1n[nH]c(-c2cccs2)n1)N1CCOCC1` was inactive: -8.78%; that for `CCc1ccc(NC(=O)C2CC(=O)Nc3ncnn32)cc1` (stereo not given) was inactive: -13.9%; that for `COc1cccc(NCc2cc(=O)oc3cc(-c4ccccc4)c(O)cc23)c1` was inactive: 12.1%.
With `Oc1cccc(Nc2nc(-c3ccccc3Cl)nc3ccccc23)c1`, the “growth rescue (activation)” value was inactive: 12%.
As to `COc1ccc(NC(=O)c2cccc(S(=O)(=O)N3CCCC3)c2)cc1OC`, the “growth rescue (activation)” value was inactive: -4.4%.
The figure for `Cc1occc1C(=O)N1N=C(C2CC2)CC1(O)C(F)(F)F` (stereo not given) is inactive: -12.3%.
`O=[N+]([O-])c1ccc(-c2cnc(NO)nc2)cc1`: the “growth rescue (activation)” value was inactive: 10.1%.
In the case of `O=C(O)c1ccc(N=NNc2cccc([N+](=O)[O-])c2)cc1`, the “growth rescue (activation)” value is inactive: -6.78%.
Consider `CCc1nc2ccc(C(=O)NCc3ccc4c(c3)OCO4)cn2c1N(CC)CCOC`, for which the “growth rescue (activation)” value was inactive: 19.6%.
As for `CN(Cc1nc2ccc(F)cc2[nH]1)Cc1c(C(=O)N(C)C)nc2ccc(Cl)cn12`, the “growth rescue (activation)” value is inactive: 4.98%.
On to `Cc1c(-c2nc(-c3ccc4c(c3)OCO4)no2)nnn1-c1cccc(C(F)(F)F)c1`, for which the “growth rescue (activation)” value is inactive: 11.7%.
The value for `COc1cccc(NC(=O)C2CCN(c3nnc(-n4c(C)ccc4C)s3)CC2)c1` was inactive: 11.9%.
Regarding `c1ccc(OCc2ccc(CCCN3CCOCC3)cc2)cc1`, the “growth rescue (activation)” value is inactive: -7.28%.
For the molecule `COCc1ccc(C(=O)N2CCCC(C(=O)c3ccc(SC)cc3)C2)s1` (stereo not given), the “growth rescue (activation)” value was inactive: -9.38%.
The value for `COc1cccc(CNC(=O)CCC2CCCN(Cc3cc(Cl)ccc3O)C2)c1` (stereo not given) was inactive: -6.43%.
With `Cc1ccccc1CNC(=O)CC1C(=O)NCCN1Cc1c(F)cccc1Cl` (stereo not given), the “growth rescue (activation)” value is inactive: -2.59%.
The value for `Cc1ccc(N=Cc2c(C)[nH]n(-c3ccccc3)c2=O)nc1` was inactive: 23.3%; that for `CCN(CC(=O)Nc1c(F)cccc1F)C(=O)CNC(=O)c1cccc(C)c1` was inactive: -16.3%.
The value for `COc1ccc(OC)c(NC(=O)COC(=O)CCNc2ccccc2OC)c1` was inactive: 2.86%; that for `CN(C)S(=O)(=O)c1cccc(CSCc2cccc(S(=O)(=O)N(C)C)c2)c1` was inactive: 8.21%.
The figure for `COc1ccc(N(CC(O)Cn2c(C)nc3ccccc32)S(=O)(=O)c2ccc(C)cc2)cc1` (stereo not given) is inactive: 5.56%.
With `CC(C)OP(=O)(OC(C)C)C(NC(=O)c1ccccc1Br)C(N)=O` (stereo not given), the “growth rescue (activation)” value was inactive: 1.93%.
In the case of `COC(=O)C(CCSC)NC(=O)c1cc2c(n(-c3ccccc3)c1=O)CC(C)(C)CC2=O` (stereo not given), the “growth rescue (activation)” value is inactive: 0.172%.
The figure for `Cc1c(Cl)cccc1NC(=S)NCC(c1cccnc1)N(C)C` (stereo not given) is inactive: -9.1%.
The value for `O=C(Nc1ccncc1)c1ccc(S(=O)(=O)Nc2ccccc2)cc1` was inactive: 16.3%.
`Cc1nn(CC(=O)NC2C(=O)N3C(C(=O)O)=C(CSc4nnnn4C)CSC23)cc1Br` (stereo not given): the “growth rescue (activation)” value is inactive: 0.671%.
The figure for `C/C(N)=C(/C#N)C(=O)CSc1nc2ccccc2c(=O)n1CCCOC(C)C` is inactive: 10.2%; for `O=C(CSc1ncn[nH]1)NCCc1ccc(Cl)cc1` it is inactive: -23.4%.
The figure for `Nc1nc2ccc(Cc3ccncc3)cc2s1` is inactive: -2.56%.
Consider `Cc1ccc(-c2csc(/C(C#N)=C(\O)CN3CCN(C(=O)c4ccco4)CC3)n2)cc1`, for which the “growth rescue (activation)” value is inactive: -9.69%.
The value for `Cc1cccn2c(Nc3ccccc3)c(-c3ccccn3)nc12` was inactive: -8.74%.

Source of the values: PubChem BioAssay AID1347073 (National Center for Advancing Translational Sciences (NCATS), 2019).
